Sequences and labels used below:
B1: human factor B (other)
chain: TPWSLAWPQGSCSLEGVEIKGGSFRLLQEGQALEYVCPSGFYPYPVQTRTCRSTGSWSTLKTQDQKTVRKAECRAIHCPRPHDFENGEYWPRSPYYNVSDEISFHCYDGYTLRGSANRTCQVNGRWSGQTAICDNGAGYCSNPGIPIGTRKVGSQYRLEDSVTYHCSRGLTLRGSQRRTCQEGGSWSGTEPSCQDSFMYDTPQEVAEAFLSSLTETIEGVDAEDGHGPGEQQKRKIVLDPSGSMNIYLVLDGSDSIGASNFTGAKKCLVNLIEKVASYGVKPRYGLVTYATYPKIWVKVSEADSSNADWVTKQLNEINYEDHKLKSGTNTKKALQAVYSMMSWPDDVPPEGWNRTRHVIILMTDGLHNMGGDPITVIDEIRDLLYIGKDRKNPREDYLDVYVFGVGPLVNQVNINALASKKDNEQHVFKVKDMENLEDVFYQMIDESQSLSLCGMVWEHRKGTDYHKQPWQAKISVIRPSKGHESCMGAVVSEYFVLTAAHCFTVDDKEHSIKVSVGGEKRDLEIEVVLFHPNYNINGKKEAGIPEFYDYDVALIKLKNKLKYGQTIRPICLPCTEGTTRALRLPPTTTCQQQKEELLPAQDIKALFVSEEEKKLTRKEVYIKNGDKKGSCERDAQYAPGYDKVKDISEVVTPRFLCTGGVSPYADPNTCRGDSGGPLIVHKRSRFIQVGVISWGVVDVCKNQKRQKQVPAHARDFHINLFQVLPWLKEKLQDEDLGFL

For test [1], the target named is T1, human iC3b (human, UniProt P01024 23-667; P01024 749-1303; P01024 1321-1663, limits assumed).
T1 construct: Coated on plates
As to the kind of experiment: ELISA; factor B at various concentrations on iC3b-coated plates, with and without properdin. On the technique in general: An ELISA detects its analyte on a solid surface through an enzyme-linked reagent.

The target in test [2] is T2, human C3c (human, UniProt P01024 23-667; P01024 749-954; P01024 1321-1663, limits assumed).
T2 construct: Coated on plates; also called Cc
As to the kind of experiment: ELISA; factor B at various concentrations on C3c-coated plates, with and without properdin.

For test [3], the target named is B1. As to the kind of experiment: ELISA; various concentrations of properdin added to substrate-bound factor B.

In the case of B1, the binding result in test [1] and in test [2] was “no binding” each time.

B2: properdin (other, UniProt P27918 28-469, looked up)
chain: DPVLCFTQYEESSGKCKGLLGGGVSVEDCCLNTAFAYQKRSGGLCQPCRSPRWSLWSTWAPCSVTCSEGSQLRYRRCVGWNGQCSGKVAPGTLEWQLQACEDQQCCPEMGGWSGWGPWEPCSVTCSKGTRTRRRACNHPAPKCGGHCPGQAQESEACDTQQVCPTHGAWATWGPWTPCSASCHGGPHEPKETRSRKCSAPEPSQKPPGKPCPGLAYEQRRCTGLPPCPVAGGWGPWGPVSPCPVTCGLGQTMEQRTCNHPVPQHGGPFCAGDATRTHICNTAVPCPVDGEWDSWGEWSPCIRRNMKSISCQEIPGQQSRGRTCRGRKFDGHRCAGQQQDIRHCYSIQHCPLKGSWSEWSTWGLCMPPCGPNPTRARQRLCTPLLPKYPPTVSMVEGQGEKNVTFWGRPLPRCEELQGQKLVVEEKRPCLHVPACKDPEEEEL
notes: also called factor P
On to B2, for which the binding result in test [3] is reported as “no binding”.
